Test results from PubChem BioAssay AID652104 (National Center for Advancing Translational Sciences (NCATS), 2013).
Screen size: about 410,000 compounds; about 7,200 (1.8%) were called active. Inconclusive results, whose numbers are uncertain, are shown with a selection of clear calls. The call rests on the fitted dose curve; in most records, active means well fitted activation curve with a large enough effect; inconclusive means small, poorly fitted or top-dose-only effect, or another doubt; inactive means no such curve, though single readings can be large or run the other way. No potency is given beside an inconclusive call; the fits are too rough.

assay: qHTS of TDP-43 Inhibitors; details: TDP-43 expressing yeast growth rescue, BacTiter-Glo, 24 h; growth rescue (activation): at 46.1 µM (top of the series) unless noted; further: nearly all actives have a fitted effect of over 50% in size; on growth rescue (activation): % of control where 0% means no effect
Summary of the method: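 Galactose-induced TDP-43 yeast, OD600=0.02, compound pinned; 24 hr, 30 deg C; BacTiter-Glo luminescence for growth. Inhibitors of TDP-43 toxicity read as activators.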
Potency means the concentration at half of the fitted maximal effect; tags describe the fitted curve by direction and shape.

| SMILES | Potency | growth rescue (activation) |
| --- | --- | --- |
| Cc1cccc(NC(=O)C(Cc2ccccc2)n2cccc2)c1C (stereo not drawn) | inconclusive [activator, partial curve] |  |
| CCOc1cc(-c2noc(-c3cccnc3)n2)ccc1OC | inconclusive [activator, partial curve] |  |
| Cc1c(C(=O)NCc2ccc3c(c2)OCO3)sc(=O)n1Cc1cccc(F)c1 | inconclusive [activator, partial curve] |  |
| CCCc1ccc(OCC(=O)Nc2sc3c(c2C(=O)OC)CCCCC3)cc1 | inconclusive [activator, full curve, poor fit] |  |
| CCCCOc1ccccc1C(=O)Nc1nonc1-c1ccccc1 | inconclusive [activator, single point] |  |
| Cc1cccc(N(C)c2nc3ccc(C)cc3n3cnnc23)c1 | active: 12.6 µM |  |
| O=C1OC(Nc2ccc(Br)cc2F)c2ccccc21 (stereo not drawn) | inactive |  |
| CC(OC(=O)Cc1c[nH]c2ccccc12)C(=O)N(C)c1ccccc1 (stereo not drawn) | inconclusive [activator, single point] |  |
| CCC(C(=O)c1ccc(O)cc1)c1ccccc1 (stereo not drawn) | inconclusive [activator, single point] |  |
| COc1ccc(C)cc1NC(=O)Nc1cnccn1 | inconclusive [activator, full curve] |  |
| CSc1ncccc1C(=O)N1CCCC(C(=O)c2ccc3ccccc3c2)C1 (stereo not drawn) | inconclusive [activator, single point] |  |
| COc1cccc(NC(=O)C(=O)NCCc2csc(-c3ccc(C(F)(F)F)cc3)n2)c1 | inactive |  |
| O=C(Cc1c(F)cccc1Cl)NNC(=O)c1ccco1 | inconclusive [activator, single point] |  |
| Cc1cc(SCC2=NNC(=O)C2)c(Cl)cc1Cl | inconclusive [activator, single point] |  |
| COCCN(C(=O)COC(=O)/C=C/c1ccc(SC)cc1)c1c(N)n(Cc2ccccc2)c(=O)[nH]c1=O | inconclusive [activator, partial curve] |  |
| OCCC1CN(Cc2ccncc2)CCN1C1CCCC1 (stereo not drawn) | inconclusive [activator, partial curve] |  |
| Clc1ccc(N=c2ssnc2Cl)nc1 |  | inconclusive: -78.6% [activator] |
| CC(=O)COc1cccc2ccc(/C=C/c3ccc(Br)s3)nc12 | inconclusive [activator, partial curve] |  |
| Cc1cccc(N2CCN(C(=O)Cn3cnc4sc(C)c(S(=O)(=O)N5CCN(c6ncccn6)CC5)c4c3=O)CC2C)c1 (stereo not drawn) | inactive |  |
| CCN(CC)C(=O)Oc1ccc2ccccc2c1Br | inconclusive [activator, full curve, poor fit] |  |
| Cc1ccc(-n2nc(C(=O)N3CCOCC3)cc2-c2ccc(Cl)cc2)cc1 | inconclusive [activator, partial curve] |  |
| CC1CCCN(Cc2nc3c(c(=O)n(C)c(=O)n3C)n2Cc2ccc(Cl)cc2Cl)C1 (stereo not drawn) | inactive |  |

| SMILES | Potency | growth rescue (activation) |
| --- | --- | --- |
| CC1CCCC(NC(=O)COC(=O)CCc2ccccc2)C1C (stereo not drawn) | inconclusive [activator, partial curve] |  |
| CCOc1cc(N2CCOCC2)c(OCC)cc1NC(=O)Cc1ccc(OC)c(OC)c1 | inconclusive [activator, partial curve] |  |
| Cc1ccccc1C(=O)Nc1ccc2nc(Nc3cccc(C(F)(F)F)c3)cc(C)c2c1 | active: 17.8 µM |  |
| FC(F)(F)c1cccc(N2CCN(Cc3nnc(-c4ccc5c(c4)OCO5)o3)CC2)c1 | inconclusive [activator, single point] |  |
| C=CCNC(=O)/C=C/c1ccc(C(C)C)cc1 | inconclusive [activator, partial curve] |  |
| CC(NS(=O)(=O)OCC(Cl)(Cl)Cl)c1ccc(Br)cc1 (stereo not drawn) | active: 35.5 µM |  |
| Cc1cc(=O)n(Cc2ccccc2)c2ccccc12 | inactive |  |
| COCCCNc1ncnc2sc3c(c12)CCC(C)C3 (stereo not drawn) | inconclusive [activator, single point] |  |
| CC(C)=CCc1c(O)c(CC=C(C)C)c2c(c1O)C(=O)CC(c1ccc(O)cc1)O2 (stereo not drawn) | inconclusive [activator, single point] |  |
| O=C(Nc1cccc(C(=O)N2CCN(c3ccccc3F)CC2)c1)c1nsc2ccccc12 | inconclusive [activator, partial curve, poor fit] |  |
| O=C(CN1C(=O)NC2(CCCc3ccccc32)C1=O)c1ccccc1F (stereo not drawn) | inconclusive [activator, partial curve] |  |
| Cc1ccccc1NC(=O)CC(O)(C(F)(F)F)C(F)(F)F | inconclusive [activator, single point] |  |
| COc1ccc([C@@H]2CC=C(C(=O)O)[C@H](c3ccccc3)N2S(=O)(=O)c2ccccc2C)cc1 | inconclusive [activator, single point] |  |
| Cc1cc(C)cc(-n2nnc(-c3nsc(NC(=O)c4ccccc4Cl)n3)c2C)c1 | inconclusive [activator, full curve, poor fit] |  |
| COc1ccc(C(CNC(=O)c2ccc(S(=O)(=O)Nc3ccccc3F)cc2)N(C)C)cc1 (stereo not drawn) | inconclusive [activator, single point] |  |
| CCOc1ccc(-c2ccc(SCC)nn2)cc1 | inconclusive [activator, full curve, poor fit] |  |
| CC(C)n1c(C(=O)OCC(=O)NCc2ccc3c(c2)OCO3)cc2sccc21 | inconclusive [activator, single point] |  |
| CC1CCN(C(=O)CSc2nc3ccccc3s2)CC1 | inconclusive [activator, single point] |  |
| COc1ccc(OC)c(CCNC(=O)c2nn(C)c3c2CSc2ccccc2-3)c1 | active: 22.4 µM |  |
| CNC(=O)c1ccc2nc(Cc3ccccc3)oc2c1 | inconclusive [activator, partial curve, poor fit] |  |
| COc1cccc(Nc2ccc(C(=O)O)cc2[N+](=O)[O-])c1 | inconclusive [activator, single point] |  |
